Reference: the supplement of paper PMC11022549

Assays:
Assay in all cases: CLSI broth microdilution in RPMI 1640, up to 16 µg/mL, 48 h at 37 °C; full growth inhibition.
tebuconazole = compound: CC(C)(C)C(O)(CCc1ccc(Cl)cc1)Cn1cncn1 [tebuconazole]
itraconazole = compound: CCC(C)n1ncn(-c2ccc(N3CCN(c4ccc(OCC5COC(Cn6cncn6)(c6ccc(Cl)cc6Cl)O5)cc4)CC3)cc2)c1=O [itraconazole]
posaconazole = compound: CC[C@@H]([C@H](C)O)n1ncn(-c2ccc(N3CCN(c4ccc(OC[C@@H]5CO[C@@](Cn6cncn6)(c6ccc(F)cc6F)C5)cc4)CC3)cc2)c1=O [posaconazole]
voriconazole = compound: C[C@@H](c1ncncc1F)[C@](O)(Cn1cncn1)c1ccc(F)cc1F [voriconazole]

Row | Test System | MIC (tebuconazole) [µg/mL] | MIC (itraconazole) [µg/mL] | MIC (posaconazole) [µg/mL] | MIC (voriconazole) [µg/mL]
1 | Aspergillus fumigatus isolate 6 (cyp51A: WT) | 2 | 1.5 | 0.5 | 0.5
2 | Aspergillus fumigatus isolate 58 (cyp51A: WT) | 8 | 2 | 1 | 1
3 | Aspergillus fumigatus isolate 24 (cyp51A: WT) | 2 | 2 | 0.5 | 0.5
4 | Aspergillus fumigatus isolate 65 (cyp51A: Y46F/V172M/T248N/E255D/K427E) | 1.5 | – | – | –
5 | Aspergillus fumigatus isolate 100 (cyp51A: T248N/E255D) | 2 | 1 | 0.5 | 0.5
6 | Aspergillus fumigatus isolate 13 (cyp51A: T248N/E255D) | 2 | 1 | 0.5 | 0.5
7 | Aspergillus fumigatus isolate 33 (cyp51A: Y46F/V172M/T248N/E255D/K427E/L464I) | 4 | 1.5 | 0.5 | 1
8 | Aspergillus fumigatus isolate 81 (cyp51A: TR34/Y46F/L98H/V172M/T248N/E255D/K427E) | 16 | 16 | 1 | 4
9 | Aspergillus fumigatus isolate 3 (cyp51A: Y46F/V172M/T248N/E255D/K427E) | 1 | – | – | –
10 | Aspergillus fumigatus isolate 22 (cyp51A: Y46F/V172M/T248N/E255D/K427E) | 2 | 1 | 0.5 | 0.5
11 | Aspergillus fumigatus isolate 30 (cyp51A: T248N/E255D) | 2 | 2 | 0.5 | 0.5
12 | Aspergillus fumigatus isolate 48 (cyp51A: TR34/Y46F/L98H/V172M/T248N/E255D/K427E) | 13.3 | 5.33 | 1 | 3.33
13 | Aspergillus fumigatus isolate 59 (cyp51A: TR34/Y46F/L98H/V172M/T248N/E255D/K427E) | 16 | > 16 | 1 | 4
14 | Aspergillus fumigatus isolate 54 (cyp51A: Y46F/V172M/T248N/E255D/K427E) | 8 | 4 | 1 | 2
15 | Aspergillus fumigatus isolate 26 (cyp51A: Y46F/V172M/T248N/E255D/K427E) | 2 | – | – | –
16 | Aspergillus fumigatus isolate 8 (cyp51A: Y46F/V172M/I242V/T248N/E255D/K427E) | 4 | 2 | 0.75 | 0.75
17 | Aspergillus fumigatus isolate 95 (cyp51A: T248N/E255D) | 2 | 1 | 0.5 | 0.5
18 | Aspergillus fumigatus isolate 21 (cyp51A: TR34/Y46F/L98H/V172M/T248N/E255D/K427E) | – | > 16 | 1.33 | 1
19 | Aspergillus fumigatus isolate 35 (cyp51A: Y46F/V172M/I242V/T248N/E255D/K427E) | 4 | 2 | 0.5 | 1
20 | Aspergillus fumigatus isolate 2 (cyp51A: Y46F/V172M/T248N/E255D/K427E) | 4 | 2 | 1 | 1
21 | Aspergillus fumigatus isolate 86 (cyp51A: Y46F/V172M/T248N/E255D/K427E/L464I) | 4 | 1.5 | 0.75 | 1
22 | Aspergillus fumigatus isolate 76 (cyp51A: TR34/Y46F/L98H/V172M/T248N/E255D/K427E) | 16 | 12 | 1 | 3
23 | Aspergillus fumigatus isolate 7 (cyp51A: Y46F/V172M/T248N/E255D/K427E) | 1 | – | – | –
24 | Aspergillus fumigatus isolate 55 (cyp51A: TR34/Y46F/L98H/V172M/T248N/E255D/K427E) | ≥ 16 | – | 1.33 | 4
25 | Aspergillus fumigatus isolate 82 (cyp51A: Y46F/V172M/T248N/E255D/K427E) | 3 | 2 | 0.5 | 0.5
26 | Aspergillus fumigatus isolate 37 (cyp51A: Y46F/V172M/T248N/E255D/K427E/L464I) | 4 | 1.5 | 0.75 | 1
27 | Aspergillus fumigatus isolate 78 (cyp51A: Y46F/V172M/T248N/E255D/K427E) | 2 | 2 | 0.5 | 0.5

Row | Test System | MIC (tebuconazole) [µg/mL] | MIC (itraconazole) [µg/mL] | MIC (posaconazole) [µg/mL] | MIC (voriconazole) [µg/mL]
28 | Aspergillus fumigatus isolate 51 (cyp51A: Y46F/V172M/T248N/E255D/K427E) | 2 | – | – | –
29 | Aspergillus fumigatus isolate 80 (cyp51A: T248N/E255D) | 1.5 | – | – | –
30 | Aspergillus fumigatus isolate 42 (cyp51A: TR34/Y46F/L98H/V172M/T248N/E255D/K427E) | > 16 | > 16 | 1 | 4
31 | Aspergillus fumigatus isolate 85 (cyp51A: Y46F/V172M/T248N/E255D/K427E) | 2 | – | – | –
32 | Aspergillus fumigatus isolate 64 (cyp51A: WT) | 4 | 2 | 0.5 | 1
33 | Aspergillus fumigatus isolate 29 (cyp51A: WT) | 2 | 1.5 | 0.5 | 0.5
34 | Aspergillus fumigatus isolate 47 (cyp51A: Y46F/V172M/T248N/E255D/K427E) | 8 | 3 | 1 | 2
35 | Aspergillus fumigatus isolate 19 (cyp51A: T248N/E255D) | 2 | 1 | 0.5 | 0.5
36 | Aspergillus fumigatus isolate 56 (cyp51A: WT) | 16 | 4 | 1 | 2
37 | Aspergillus fumigatus isolate 68 (cyp51A: T248N/E255D) | 2 | 2 | 0.5 | 0.5
38 | Aspergillus fumigatus isolate 32 (cyp51A: Y46F/V172M/T248N/E255D/K427E) | 1 | – | – | –
39 | Aspergillus fumigatus isolate 57 (cyp51A: Y46F/V172M/T248N/E255D/K427E) | 1.5 | – | – | –
40 | Aspergillus fumigatus isolate 11 (cyp51A: T248N/E255D) | 2 | 1 | 0.5 | 0.375
41 | Aspergillus fumigatus isolate 93 (cyp51A: T248N/E255D) | 4 | 1.5 | 0.5 | 1
42 | Aspergillus fumigatus isolate 15 (cyp51A: Y46F/V172M/I242V/T248N/E255D/K427E) | 4 | 2 | 0.75 | 1
43 | Aspergillus fumigatus isolate 75 (cyp51A: A9T/Y46F/V172M/T248N/E255D/K427E) | 1.5 | 1 | 0.5 | 0.5
44 | Aspergillus fumigatus isolate 34 (cyp51A: T248N/E255D) | 4 | 1.5 | 0.5 | 1
45 | Aspergillus fumigatus isolate 1 (cyp51A: TR34/Y46F/L98H/V172M/T248N/E255D/K427E) | 16 | 16 | 1 | 4
46 | Aspergillus fumigatus isolate 27 (cyp51A: T248N/E255D) | 2 | 1 | 0.5 | 0.5
47 | Aspergillus fumigatus isolate 60 (cyp51A: TR34/Y46F/L98H/V172M/T248N/E255D/K427E) | ≥ 16 | – | 1 | 4
48 | Aspergillus fumigatus isolate 16 (cyp51A: T248N/E255D) | 2 | – | – | –
49 | Aspergillus fumigatus isolate 23 (cyp51A: Y46F/V172M/T248N/E255D/K427E) | 1 | – | – | –
50 | Aspergillus fumigatus isolate 69 (cyp51A: Y46F/V172M/T248N/E255D/K427E) | 1.5 | – | – | –
51 | Aspergillus fumigatus isolate 71 (cyp51A: Y46F/V172M/T248N/E255D/K427E) | 1 | – | – | –
52 | Aspergillus fumigatus isolate 50 (cyp51A: Y46F/V172M/T248N/E255D/K427E) | 2 | – | – | –
53 | Aspergillus fumigatus isolate 20 (cyp51A: TR46/Y46F/Y121F/V172M/T248N/E255D/T289A/K427E) | – | 1.33 | 0.66 | ≥ 16
54 | Aspergillus fumigatus isolate 9 (cyp51A: Y46F/V172M/T248N/E255D/K427E) | 1 | – | – | –

MIC (lowest dose with no growth) of environmental A. fumigatus isolates, CLSI broth microdilution in RPMI 1640, up to 16 µg/mL, 48 h at 37 °C, mean of two or three runs; higher = less susceptible. No active / inactive call per row; the paper counts tebuconazole above 3, itraconazole and voriconazole above 2 and posaconazole above 0.25 µg/mL as resistant. The source writes 17 for growth at the top dose; shown as '>' 16, and '>=' 16 where runs were 16 and above. cyp51A changes are as printed. Isolates are numbered anew.
